According to PMC12136788:
The other results are listed elsewhere or left out.

T1: UNK ZnF1-6 (called full-length) (human, UniProt Q9C0B0 30-357)
T1 sequence: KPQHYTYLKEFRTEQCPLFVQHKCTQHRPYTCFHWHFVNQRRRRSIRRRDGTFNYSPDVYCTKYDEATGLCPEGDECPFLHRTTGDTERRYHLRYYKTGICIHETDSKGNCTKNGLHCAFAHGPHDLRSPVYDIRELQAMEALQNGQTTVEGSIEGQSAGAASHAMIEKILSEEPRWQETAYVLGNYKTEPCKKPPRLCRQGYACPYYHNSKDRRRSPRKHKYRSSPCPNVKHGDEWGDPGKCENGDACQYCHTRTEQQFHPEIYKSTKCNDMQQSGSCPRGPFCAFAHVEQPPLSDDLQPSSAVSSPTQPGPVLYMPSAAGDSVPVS

B1: chr17:67075675:67075776:-|3pUTR|ENSG00000198265|unk|FALSE|unique (ssRNA)
RNA: GGGAGUUCUACAGUCCGACGAUCAUUCCUUAUUUCCAUAGCCAGUCAAGGAUUCUAACGCUGCUUCCAUCUGAUACUCUUCUUAGAUUCUGCAUCAAAUGCUUAUUUUGACUUACAACAAGCUUACUCUUCCUCAGCAUUACACAACAGAGGAUUGAGCAUCA
B2: chr3:89481969:89482070:+|3pUTR|ENSG00000044524|msi1|FALSE|unique (ssRNA)
RNA: GGGAGUUCUACAGUCCGACGAUCAUAUGUGUUUACUUUAAACUUGUCUUUUCAAAAUAUUACUCAGUUUAUGUUGUACAAUGUAGAUGGCCUCUUACUAAUGUAAAAUGAUUUGUAGUGGAAACAUUUAUAUUUUUAUAAUAACAACAGAGGAUUGAGCAUCA
B3: ENSG00000164985:stop:overlap|stop_codon|ENSG00000164985|stop_codon|NA|stop_codon (ssRNA)
RNA: GGGAGUUCUACAGUCCGACGAUCAGCCAUCCAGUGAAGAGAGAGAGACUGAAAUAUCUCUGAAGGAUUCUACACUAGAUAACUAGGUUGACAUACCUGGAAUAUAGAGAACACUUGAGAAGUUUGUAAUGGUUUUCAUUUGAACAACAGAGGAUUGAGCAUCA
B4: chr6:43186014:43186115:+|CDS|ENSG00000112659|msi1|total|mutant (ssRNA)
RNA: GGGAGUUCUACAGUCCGACGAUCCUGCUUUUCUCCUUGGUGAAGCGCUACCUUUGUGUCACGUCCCUCCUGGAUCAGCUGAACCGCAGUCCAGAGCUGGGAGCUGGAGACCAAAGCUCCCCAUGUGCCACAAGAGAGAAAAGCCAACAGAGGAUUGAGCAUCA
B5: chr3:49886901:49887562:-|three_prime_utr|ENSG00000164078|control|control|control (ssRNA)
RNA: GGGAGUUCUACAGUCCGACGAUCCCAAGUGAUGCAGCAAUGCUGGGAGGCAGACCCAGCAGUGCGACCCACCUUCAGAGUACUAGUGGGGGAGGUGGAGCAGAUAGUGUCUGCACUGCUUGGGGACCAUUAUGUGCAGCUGCCCAACAGAGGAUUGAGCAUCA
B6: chr12:1788447:1788559:+|3pUTR|ENSG00000006831|unk|total|mutant (ssRNA)
RNA: GGGAGUUCUACAGUCCGACGAUCUUUCUUUUUUGGCCCCCGGCUGGUUGGGACCUCUACAGCUUCAUUCUUUCACCAUUAAACCGUGGCCUUUUUCAGUAUUUUCCCUCUUCCCCUUUAUAAAUUAUGCUAAAGCCACAAAGCCAACAGAGGAUUGAGCAUCA
B7: chr2:167954955:167954998:-|3pUTR|ENSG00000198648|msi1_unk|FALSE|overlapping (ssRNA)
RNA: GGGAGUUCUACAGUCCGACGAUCGUUGUAUUUAGAAAUUAAUAUACUUAUAAAAUUAAGAUUUAUUAGCCAAACUUGAAUUCUAGUUUUAAAACUGACUGUGAAUUUUAUUUUUCAUAUAUUUAUGCAUUACACACCUUAGCUCAACAGAGGAUUGAGCAUCA
B8: chr15:75657416:75657517:+|3pUTR|ENSG00000173548|msi1|total|mutant (ssRNA)
RNA: GGGAGUUCUACAGUCCGACGAUCCAUGGGUGCCCCUGGGAAAUUCCCCACUCCUCCGAAGUGGGGCACAGCAGGGGUGAGAACCGAGUCAGGAGCCCUCGAGGCCAAGGCCUGGGCUGCCGGUCAGUCAGUGAAGGUCAGGCCCAACAGAGGAUUGAGCAUCA
B9: chr19:34227675:34227687:+|3pUTR|ENSG00000257103|msi1_unk|total|mutant (ssRNA)
RNA: GGGAGUUCUACAGUCCGACGAUCUUAAAACAUGAGCAUUAAAUAUAUUUGGAACCGCAGAAGGUUAAGUAAUUUCUUAUGUACCGUUAAACUAAAGCAGUACUUCAGUGGGACUUAACAAGUAUUUUUUCAUCACUGAAAGGUCAACAGAGGAUUGAGCAUCA
B10: chr17:15565482:15566353:-|three_prime_utr|ENSG00000241322|control|control|control (ssRNA)
RNA: GGGAGUUCUACAGUCCGACGAUCCACCCAAAGAAAAAGUCUUGGAAAAUCCCUAUGUCACCUGACCAAUUCCUCCUGACUGUUAGCGCCCUGCAGCACGCCCGUAAUUCCGGGGAAUUUGCCUAUCCCUGUAGGCCCCAAACACAACAGAGGAUUGAGCAUCA
B11: chr20:4700211:4700532:+|3pUTR|ENSG00000171867|msi1|FALSE|unique (ssRNA)
RNA: GGGAGUUCUACAGUCCGACGAUCUUGCCUGGAUACCUCUGGCUCCUUCAGCAGCUAGAGCUCAGUAUACUAAUGCCCUAUCUUAGUAGAGAUUUCAUAGCUAUUUAGAGAUAUUUUCCAUUUUAAGAAAACCCGACAACAUUUCAACAGAGGAUUGAGCAUCA
B12: ENSG00000070961:be:win_3001|CDS|ENSG00000070961|bound_else_gene|NA|bound_elsewhere_windowed (ssRNA)
RNA: GGGAGUUCUACAGUCCGACGAUCGAAGGAAUCUUUAACAAUGCCAUCUUCUGCACAAUUGUUUUAGGCACUUUUGUGGUACAGAUAAUAAUUGUGCAGUUUGGUGGAAAACCUUUCAGUUGUUCAGAACUUUCAAUAGAACAGCAACAGAGGAUUGAGCAUCA
B13: chr11:61873518:61873813:-|three_prime_utr|ENSG00000221968|control|control|control (ssRNA)
RNA: GGGAGUUCUACAGUCCGACGAUCCCCUCACAUGUGUAUUCAGCAGCCCUAUGGCCUUGGCUCUGGGCCUGAUGGGACAGGGGUAGAGGGAAGGUGAGCAUAGCACAUUUUCCUAGAGCGAGAAUUGGGGGAAAGCUGUUAUUUCAACAGAGGAUUGAGCAUCA
B14: chr11:119024350:119024909:-|three_prime_utr|ENSG00000137700|control|control|control (ssRNA)
RNA: GGGAGUUCUACAGUCCGACGAUCUCCCACGGUGGCCUUCCCCCUGCACGCUCUGCGGGGAGAAAAGGAGGGGCCUGCCUGGCUAGCCCUGAACCUUUCACUUUCCAUUUCUGCGCCUUUUCUGUCACCCGGGUGGCGCUGGAACAACAGAGGAUUGAGCAUCA
B15: chr2:196133582:196137729:-|three_prime_utr|ENSG00000081320|control|control|control (ssRNA)
RNA: GGGAGUUCUACAGUCCGACGAUCUCUGUAAGGUCCUCUGAAGACAAGACUUCUAAAUCCUCCUGUAAUGGAACCUGUGGUGAUAGAGAAGACAAAGAGAAUAUCCCAGAGGAUAGCAGCAUGGUUUCCAAAAGAUUUCGUUUCCAACAGAGGAUUGAGCAUCA
B16: chr6:43287355:43287456:+|3pUTR|ENSG00000146216|unk|total|mutant (ssRNA)
RNA: GGGAGUUCUACAGUCCGACGAUCUAUGACUCCUGGUGCCCAGGCCCUGGGCCUGCUCCUUGCCACCAACCGAACCGUGAAUGCCGGGCCCCCAGCCUCACCUCUGCCCCAGGACCAACAACACCCUGGUUUGGAGCUGGGAGGCAACAGAGGAUUGAGCAUCA
B17: chr3:11557161:11557262:-|3pUTR|ENSG00000144560|msi1|FALSE|unique (ssRNA)
RNA: GGGAGUUCUACAGUCCGACGAUCCCUCUGACUUUAUACUGUUAUUACUGCAUUUAUUAUUUGCUAUAUUAAUAGCUACUAACUAGAAAUUAGAUGAAGCAAGCAUGACAGACACAGCUGUGGAGGUCACAGCUGCUCCUUUUUCAACAGAGGAUUGAGCAUCA
B18: chr8:81702113:81702224:-|3pUTR|ENSG00000104231|unk|total|mutant (ssRNA)
RNA: GGGAGUUCUACAGUCCGACGAUCGUACCGCCUUGCUGUCUGUCUACAUCAUGAUGUAUAAAUUGAUAUAUCUACAUGAAUUACCGAAACUCCGAAGUGAUCUUUAUUCAGUCUUAUAAUUUUUACAUGAAGAAUCUCCGGCCUCAACAGAGGAUUGAGCAUCA
B19: ENSG00000198589:be:win_5051|CDS|ENSG00000198589|bound_else_gene|NA|bound_elsewhere_windowed (ssRNA)
RNA: GGGAGUUCUACAGUCCGACGAUCGCUUGGUUAACAUACCAGCAGAUGGAGUCACAGUGGAUCCUGCCCUUCUGCCACCAGCCUGCCUUGGAGCCCUUGGUGAUCUAUCUGUGGAACAACCCGUGCAGUUCAGAUCUUUUGACACAACAGAGGAUUGAGCAUCA
B20: chr8:18529670:18529771:-|3pUTR|ENSG00000156011|msi1|FALSE|bound_elsewhere (ssRNA)
RNA: GGGAGUUCUACAGUCCGACGAUCUAAAGCCAUGGAGUUUAUAAAGCCAAGUAACCAUUUGAUAUGGAUAAUAAUAUCUACUCUAGAGAGAGUAUAUAUAUGCACAUUGAUUUUUAAUGCUGUUAAGAUACUUUUGUAAAACUGCAACAGAGGAUUGAGCAUCA
B21: chr11:69651733:69651797:+|3pUTR|ENSG00000110092|msi1_unk|FALSE|overlapping (ssRNA)
RNA: GGGAGUUCUACAGUCCGACGAUCAAAACAUUUUAAAAACAUAGAAAAAUUCAGCAAACCAUUUUUAAAGUAGAAGAGGGUUUUAGGUAGAAAAACAUAUUCUUGUGCUUUUCCUGAUAAAGCACAGCUGUAGUGGGGUUCUAGCAACAGAGGAUUGAGCAUCA
B22: chr15:38352922:38353023:+|3pUTR|ENSG00000166068|msi1|total|mutant (ssRNA)
RNA: GGGAGUUCUACAGUCCGACGAUCUACAUAUAAAUUUAUUUCUUUUGCAGAGCAUUAUAUUACUGGAUGUUUAAUUUACAAAACCGUUGGGUAAAUGUUCCAACAAACUUUAAAGUACCUUGAAGUCAAAUUGUCUGUUUUUGUCAACAGAGGAUUGAGCAUCA

molecular target: T1, UNK ZnF1-6 (called full-length); experiment: nsRBNS (natural sequence RNA bind-n-seq); RBNS binding buffer (assumed for nsRBNS): 25 mM Tris pH 7.5, 150 mM KCl, 3 mM MgCl2, 0.01% Triton X-100, 500 ug/ml BSA, 20 U/ml SUPERase-In, 4 C; UNK is unkempt and MSI1 is Musashi-1; names of the RNAs are library labels; protein concentration not given here; high values mean tight binding

Binder	binding signal
B1	1.05 enrichment R
B2	1.68 enrichment R
B3	2.89 enrichment R
B4	0.544 enrichment R
B5	0.753 enrichment R
B6	0.797 enrichment R
B7	15.2 enrichment R
B8	0.43 enrichment R
B9	0.46 enrichment R
B10	0.988 enrichment R
B11	6.53 enrichment R
B12	0.611 enrichment R
B13	1.12 enrichment R
B14	0.719 enrichment R
B15	0.528 enrichment R
B16	0.908 enrichment R
B17	2.34 enrichment R
B18	0.607 enrichment R
B19	1.05 enrichment R
B20	0.558 enrichment R
B21	8.88 enrichment R
B22	0.824 enrichment R
